Drawing on paper PMC10726135, this text covers binding signal (log2 normalized intensity) for 73 sequences.

The other results are listed elsewhere or left out. At the low end of the ranking, values are background and their order means little. Measured with an extract: partners may take part in the binding.

The target in this assay is T1, HNF4alpha2 (COS-7 nuclear extract) (UniProt P41235).
T1 sequence: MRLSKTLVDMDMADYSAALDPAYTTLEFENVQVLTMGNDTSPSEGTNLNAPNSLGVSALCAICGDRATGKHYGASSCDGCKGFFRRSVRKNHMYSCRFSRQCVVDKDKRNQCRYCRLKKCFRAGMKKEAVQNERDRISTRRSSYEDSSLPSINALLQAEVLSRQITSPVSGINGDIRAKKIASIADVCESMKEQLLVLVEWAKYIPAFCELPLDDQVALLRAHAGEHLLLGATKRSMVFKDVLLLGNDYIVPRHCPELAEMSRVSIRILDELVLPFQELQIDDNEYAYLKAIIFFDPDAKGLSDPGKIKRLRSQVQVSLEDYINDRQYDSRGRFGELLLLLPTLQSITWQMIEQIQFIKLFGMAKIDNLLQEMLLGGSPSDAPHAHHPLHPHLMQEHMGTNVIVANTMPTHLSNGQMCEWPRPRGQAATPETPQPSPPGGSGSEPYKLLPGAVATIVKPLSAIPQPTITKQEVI
The experiment in a line: protein-binding microarray. Conditions: COS-7 nuclear extract on double-stranded Agilent 4x180k PBM; binding buffer, salt, pH and temperature not given; high values mean tight binding; double strand, one strand shown; sequences stand for … in …GCCTAGGGAGATTAGAGTATCGGTCGA
As for GCTCTGCATATGCCAACAGGTGCTCTTTAT, the binding signal (log2 normalized intensity) amounted to 1.37.
As for TAGGCCTCAAGACAAACAATAGATAGGACA, the figure is -0.217.
Regarding TGAGGATGGGCAGTCCCTATAGCCTCACTT, the binding signal (log2 normalized intensity) was -1.12.
GCTGCATTTGTCCGGGTATGTTCTTAAGAT: the binding signal (log2 normalized intensity) amounted to 1.76.
As for CTGACTTGCAACCTTTGCCCTGTTGTCTTT, the binding signal (log2 normalized intensity) stood at 5.43.
Consider GAGTGAACCTAGTGGCTGTGGAAGTCTGGC, for which the binding signal (log2 normalized intensity) is -0.0781.
On to TTGGCTGATAAAACAAATCTACAAATGTTT, for which the binding signal (log2 normalized intensity) came out at 0.452.
For the sequence AGATAAACCAAGCCTGCAGCACCTTGATGC, the binding signal (log2 normalized intensity) is -0.938.
For the sequence CAGGATTCTTGCTGCAGCTGGGCTATACAA, the binding signal (log2 normalized intensity) is -1.12.
Regarding AAATTCCAATATAGCAAAGAGAGTCAAAGT, the binding signal (log2 normalized intensity) is 0.882.
Turning to AAGTATCTCGGTCAAACCTTTGACCCTTTA, the binding signal (log2 normalized intensity) was determined as 6.7.
With CTGGCAGTGAAGGTTCAGTGAAGTAGTGTG, the binding signal (log2 normalized intensity) was 1.66.
Turning to GGACCACGATCAGCCAGCAGGGGGCGCAGA, the binding signal (log2 normalized intensity) was -1.06.
Take CCTTGCCTGGCTACCTCTTAGCTACCCTGT: the binding signal (log2 normalized intensity) is -0.223.
Turning to CCCCGCCCCCAGTGCACCTTAATAAGCACA, the binding signal (log2 normalized intensity) is 4.39.
Consider TTTCCATTTTTGCTCCTGCACTTTTGTGCT, for which the binding signal (log2 normalized intensity) came to 1.16.
As for GCACTTTTGGAGTTTGACCTGGAGCCAGGG, the binding signal (log2 normalized intensity) was 4.6.
Regarding CTACTGCCAGCCAGGGCCACCCATCAGTGG, the binding signal (log2 normalized intensity) was -1.02.
As for GTTACCTTGGGGTCAAAGTACATCCCCTAA, the binding signal (log2 normalized intensity) was 6.4.
Consider TGAGAAACCACAGGAGTGCCGTGAGGGGTT, for which the binding signal (log2 normalized intensity) was -0.712.
GAGATGCTGGGTGGCATAGTTGATGTCAAT: the binding signal (log2 normalized intensity) was determined as 0.93.
In the case of CTGAGGTGCTCTCAGATAAGAGATGAGGAA, the binding signal (log2 normalized intensity) was -1.12.
Turning to TAGTGATTTAGGCTTTTGGGCCCTGTCTGA, the binding signal (log2 normalized intensity) was found to be 0.52.
With AAGCATGACAAAATAACGAAGGCATTCTTA, the binding signal (log2 normalized intensity) is -1.11.
Take GTACCTAGGACAAAGCAAACACTCATTTCA: the binding signal (log2 normalized intensity) was -1.18.
As for TTCCGGGGGCGGTTTTTCCATTGTACTCAG, the figure is 1.47.
As for ACACTGAGGAAAAGCTGTCTACAAACACAG, the binding signal (log2 normalized intensity) is -1.06.
In the case of GGGGCCTGAGGAAAGGAAGATGCACATTCC, the binding signal (log2 normalized intensity) is -1.13.
In the case of TATGAGAGAGAGAGAGAGGTGGGCAAAGGT, the binding signal (log2 normalized intensity) is 1.53.
The value for CCTTGGGACAGCTGGCCTCATGCCTTATCT was -0.701.
In the case of CTTATCTGAGGTGCCCTTACATTTTGCTCT, the binding signal (log2 normalized intensity) is 1.53.
The value for ATAAGCACCCTGCTCCAGCCAGAGGCCTTA was -1.03; that for AGAGATCAAAGGGGAGGTGGGAAAAGAAAT was -1.2; that for GTCGCCGTGAGGTTATTTGCAGACTCTGTT was 1.37.
Consider CAAAACAACCACTCTTATCAGACAGGATAT, for which the binding signal (log2 normalized intensity) was -1.05.
In the case of ACCAGATCTTACTTTGAGGTGTTCTCTGGG, the binding signal (log2 normalized intensity) was determined as 0.948.
With TAGGTTGGAGGAGCTGAACTGTAACCTCAA, the binding signal (log2 normalized intensity) stood at 0.872.
As to CCAGTTCCAGGGATGTCTTTTTCTGACCCA, the binding signal (log2 normalized intensity) turned out to be 2.54.
As for GTCCCACAGGGAAAGTATGGGTCAGCCCTG, the figure is 0.783.
For GAAGAAGTTGCTCAGTGTTCCACAGCAAGT, the binding signal (log2 normalized intensity) was -1.07.
The value for AAACAACACACCTTGCCACCCACACTGCAG was -0.991; that for GCGCCACATTCTGAGCCAGCACTTCGACCT was 2.29; that for AATGAGTGTGGGACTTGAGGTCTTATCTTT was 1.11.
As for ATCCCTGTTGCCTCATCTGAAAAAAGCTAT, the binding signal (log2 normalized intensity) came to 0.599.
With TCTCTCTCCACCTGGAGGGACTTTGTCCCA, the binding signal (log2 normalized intensity) was 5.1.
As for TATTTGTAGCTTCAAACCAGTTATTCCAAG, the figure is 0.687.
Regarding TTTCTGTAAAGCTTTATTTTGGGGCTGTAT, the binding signal (log2 normalized intensity) worked out at 0.324.
As for AGGATGACAAAGAGCAAGTGACCCTCAGAC, the figure is 2.57; as for TCAGAAAGGTCAGCGCTTTGGTAGGCTGTA, 0.762; as for GCAATGGCTTCACAATTCCTAGCAATTCAA, -1.18.
In the case of ATGTGTTACACCTGTGTGTACTGGGCAGAT, the binding signal (log2 normalized intensity) was 1.41.
With AATGTAAACTCCAAGGAGCAAATCCGTAAG, the binding signal (log2 normalized intensity) was -1.07.
TGAATTGATTGCCAAGAGGGAGGGGTCAGG: the binding signal (log2 normalized intensity) came to 1.18.
As for GAGTACTTGGACTTTAACCTTTAGATTACT, the binding signal (log2 normalized intensity) amounted to 7.31.
As for CAAACTGGGACCTGTGACACTCTGCTGCCT, the binding signal (log2 normalized intensity) is -0.941.
In the case of CAGCCCCATCCCCCAATACACACACACCCC, the binding signal (log2 normalized intensity) worked out at 6.31.
With GAAAATATTTCTCTGAACTTTGACCTATAG, the binding signal (log2 normalized intensity) came out at 8.62.
As for CTGAAGGCAAATTCTTAGAATTGCACTGCA, the binding signal (log2 normalized intensity) was -1.13.
For GGAAGACTGATAAGAAAACTAGCAAGGATA, the binding signal (log2 normalized intensity) is -1.24.
For the sequence AGAGGGACAAAATGCCCAGGATTCCTTTTT, the binding signal (log2 normalized intensity) is -1.07.
Take ACAGCTAGTCTAGACTTTGCTTTCTTGGAG: the binding signal (log2 normalized intensity) is 1.24.
Take CCGAGGCATATTTAACTTGGCAAGGGGAGG: the binding signal (log2 normalized intensity) is -1.12.
As to AGGCAGGCTGAGTCAGTTTAGTCCTGGATG, the binding signal (log2 normalized intensity) was found to be 1.02.
As for TAGCTTTCCTGTCACAAGAGATAAAGCTCT, the figure is -1.14; as for AGAAGGAAAAGGCCTGACCTTTGCCCTCTG, 10.1; as for GACATCTGCTTCCAAAGAGCTCAACCTGTG, -1.16.
Take AAAGTCTGGCAAATGAAATGTAATCAGCAA: the binding signal (log2 normalized intensity) was -1.19.
Take AGAGGTAACTCCCCCTTCATCTGGGACGTG: the binding signal (log2 normalized intensity) turned out to be 2.09.
For CTTCCAGATCTGGATATGCCTGGGGTTCCA, the binding signal (log2 normalized intensity) came out at 0.819.
As for CTGTGGTACAGGCAGTGACTGGACCACGAT, the figure is -0.442.
The value for AAATACCCTCTTTAGGGTAGCCTGGGTTAA was 0.885; that for AATAACAAACAAGAAAGTTGAGGTGAATAC was -0.906.
The value for GAGTTGGAGAAGAGCAAAGATCATCTGGTG was 1.22.
